Laboratory results reported in PubChem BioAssay AID504466 (National Center for Advancing Translational Sciences (NCATS), 2011).
Among all 330,000 compounds or so, about 4,200 (1.3%) were called active. Inconclusive means that the source gave no clear call. Such entries were picked first, then a sample of the others. Calls come from the whole dose curve; as a rule, active = well fitted activation curve with a large enough effect; inconclusive = small, poorly fitted or top-dose-only effect; inactive = no such curve, though single readings can be large or run the other way. Where the call is inconclusive, the potency comes from a doubtful curve fit.

Assay: qHTS screen for small molecules that induce genotoxicity in human embryonic kidney (HEK293T) cells expressing luciferase-tagged ELG1; note: nearly all actives have a fitted effect of over 60% in size
Conditions: HEK293T ELG1-luciferase reporter, luminescence, 16 h; series mostly up to 46 µM
Outline: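 16 hr compound incubation (37 °C, 5% CO2) of HEK293T cells carrying luciferase-tagged ELG1; luciferase then measured by ONE-Glo luminescence after 30 min at RT.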
Potency is the fitted concentration of half-maximal effect; tags give direction and shape of the fitted curve.

Question: With `O=C(Nc1nccs1)c1ccc(-c2ccccc2Cl)o1` as the compound, how does the Potency read?
Answer: active: 4.11 µM

Question: With `CCOC(=O)Cc1ccc2sc(-c3ccccc3)nc2c1` as the compound, how does the Potency read?
Answer: active: 6.51 µM

Question: For `Cc1cccc(OCC(=O)O/N=C(\N)c2ccccn2)c1C`, which Potency is on record?
Answer: inconclusive: 10.3 µM [activator, partial curve, poor fit]

Question: With `CCCCn1nnc(NC(=O)c2ccc(-c3ccccc3)cc2)n1` as the compound, how does the Potency read?
Answer: inconclusive: 9.2 µM [activator, partial curve]

Question: With `COc1ccc2oc(C(=O)Nc3nnc(C)s3)c(C)c2c1` as the compound, how does the Potency read?
Answer: active: 3.26 µM

Question: For `Cc1ccc(NC(=O)COCC(=O)Nc2ccc(C)cc2)cc1`, which Potency is on record?
Answer: inactive

Question: For `Cc1ccc(/C=N/NC(=O)c2ccc3nc[nH]c3c2)s1`, which Potency is on record?
Answer: inactive

Question: With `CCOC(=O)c1ccc(-c2ccc(C3Nc4ccccc4C(=O)N3O)o2)cc1` (centres undefined) as the compound, how does the Potency read?
Answer: inconclusive: 29.1 µM [activator, single point]

Question: For `COc1ccc(C(=O)NC(=S)NC2CCCCC2)cc1`, which Potency is on record?
Answer: inconclusive: 8.2 µM [activator, partial curve]

Question: For `CCOc1ccc(NC(=O)c2sc(NC(C)=O)c(C(=O)OC)c2C)cc1`, which Potency is on record?
Answer: inconclusive: 23.1 µM [activator, single point]

Question: With `C/C(=N\NC(=O)CSCc1ccccc1Cl)c1cc(O)ccc1O` as the compound, how does the Potency read?
Answer: inconclusive: 16.4 µM [activator, partial curve, poor fit]

Question: For `N#CCN1CCN(CC(=O)Nc2ccc(OCc3ccccc3)cc2)CC1`, which Potency is on record?
Answer: inconclusive: 20.6 µM [activator, single point]

Question: Which Potency does the source give for `O=C(Nc1ccccc1SCC1CSc2nc3ccccc3c(=O)n21)c1ccccc1Cl` (centres undefined) here?
Answer: inconclusive: 3.66 µM [activator, partial curve, poor fit]

Question: For `CCCNC(=O)CN1C(=O)NC(c2ccccc2)(c2ccccc2)C1=O`, which Potency is on record?
Answer: inactive

Question: Which Potency does the source give for `CC1CCN(S(=O)(=O)c2nnc(NC(=O)COc3ccccc3)s2)CC1` here?
Answer: inactive

Question: With `COc1ccccc1-c1nnc(SCC(=O)Nc2nc(-c3ccccc3)cs2)n1C` as the compound, how does the Potency read?
Answer: inactive

Question: With `COc1ccc(-c2cc(=O)c3ccccc3s2)cc1` as the compound, how does the Potency read?
Answer: active: 2.31 µM

Question: Which Potency does the source give for `O=C(COC(=O)c1cc(-c2ccccc2)nc2ccccc12)Nc1ccc2c(c1)OCO2` here?
Answer: inactive

Question: With `c1ccc(-c2cnc(-c3cccnc3)o2)cc1` as the compound, how does the Potency read?
Answer: inconclusive: 23.1 µM [activator, partial curve, poor fit]

Question: For `CC(=O)Nc1nc(-c2ccc3c(c2)CCN3S(C)(=O)=O)cs1`, which Potency is on record?
Answer: inconclusive: 23.1 µM [activator, partial curve, poor fit]

Question: With `CCN(C(=O)COC(=O)c1ccc2ccccc2n1)c1c(N)n(Cc2ccccc2)c(=O)[nH]c1=O` as the compound, how does the Potency read?
Answer: inactive

Question: For `Clc1ccc(/C=C/c2nc3ccccc3[nH]2)c(Cl)c1`, which Potency is on record?
Answer: inconclusive: 0.103 µM [activator, full curve, poor fit]

Question: Which Potency does the source give for `O=C(CNC(=O)c1ccc(Br)cc1)c1ccccc1` here?
Answer: inconclusive: 8.2 µM [activator, partial curve]

Question: For `O=C(Cc1ccccc1)Nc1ccc(Cl)cn1`, which Potency is on record?
Answer: inconclusive: 20.6 µM [activator, partial curve, poor fit]

Question: For `COc1ccc(N2CCN(S(=O)(=O)c3ccc4c(c3)NC(=O)C(C)S4)CC2)cc1` (centres undefined), which Potency is on record?
Answer: inactive

Question: With `COc1ccccc1OCc1nc2ccccc2n1C` as the compound, how does the Potency read?
Answer: inconclusive: 20.6 µM [activator, partial curve, poor fit]

Question: With `COc1ccc(-c2noc(CN(C(=O)c3c(-c4ccccc4Cl)noc3C)C(C)C)n2)cc1` as the compound, how does the Potency read?
Answer: inactive

Question: With `COc1ccc(CN2C(=O)CS/C2=N/N=C/c2ccccc2)cc1` as the compound, how does the Potency read?
Answer: inconclusive: 29.1 µM [activator, partial curve, poor fit]

Question: With `NS(=O)(=O)c1ccc(NC(=O)c2ccc(S(=O)(=O)N3CCOCC3)o2)cc1` as the compound, how does the Potency read?
Answer: inactive

Question: For `CC(=O)c1cccc(NC(=O)COC(=O)c2ccccn2)c1`, which Potency is on record?
Answer: inactive

Question: With `Cc1ccc(NC(=O)c2sc3ccccc3c2Cl)nc1` as the compound, how does the Potency read?
Answer: inconclusive: 0.82 µM [activator, full curve, poor fit]

Question: With `O=C(Nc1ccccc1)N1CCN(c2nc(-c3ccccc3)ns2)CC1` as the compound, how does the Potency read?
Answer: inactive

Question: With `O=C(COC(=O)c1cccnc1Cl)NC(=O)c1ccc(OC(F)F)cc1` as the compound, how does the Potency read?
Answer: inactive

Question: With `CCn1c(SCC(=O)Nc2cc(C)on2)nc2c([nH]c3ccccc32)c1=O` as the compound, how does the Potency read?
Answer: inconclusive: 29.1 µM [activator, single point]

Question: For `COc1ccccc1C(=O)NCC(=O)OCc1csc(-c2ccccc2)n1`, which Potency is on record?
Answer: inactive

Question: For `O=C(Cn1cc(C(=O)c2cccs2)c2ccccc21)NCc1cccs1`, which Potency is on record?
Answer: inconclusive: 23.1 µM [activator, partial curve, poor fit]

Question: With `Cc1cc(OCCN2CCOCC2)ccc1[N+](=O)[O-]` as the compound, how does the Potency read?
Answer: inconclusive: 14.6 µM [activator, partial curve, poor fit]

Question: For `Cc1nc(Nc2ccccc2)sc1-c1ccccc1`, which Potency is on record?
Answer: inconclusive: 1.64 µM [activator, full curve]

Question: For `CCCCOc1cccc(-c2cc(C(=O)NNC(=S)NCC)c3ccccc3n2)c1`, which Potency is on record?
Answer: inconclusive: 29.1 µM [activator, single point]

Question: For `O=C(Nc1ccc(Br)cn1)c1cccc(-c2cc3ccccc3oc2=O)c1`, which Potency is on record?
Answer: inconclusive: 9.2 µM [activator, partial curve, poor fit]

Question: With `O=c1sc2ccccc2n1CCOc1ccccc1` as the compound, how does the Potency read?
Answer: active: 20.6 µM

Question: With `CSC1=N/C(=C\c2ccc(F)cc2)C(=O)S1` as the compound, how does the Potency read?
Answer: inactive

Question: For `O=C(O)c1cccc(COc2ccc(CO)cc2Cl)c1`, which Potency is on record?
Answer: inconclusive: 0.0065 µM [activator, full curve, poor fit]

Question: With `CCC/C(=N\NC(=O)c1ccc(OC)c(OC)c1)c1ccccc1` as the compound, how does the Potency read?
Answer: inactive

Question: With `C/C(=N\NC(=O)CNC(=O)c1cccc(F)c1)c1ccc2ccccc2c1` as the compound, how does the Potency read?
Answer: inactive

Question: With `Cc1nn(-c2ccc(N3CCCCC3)nn2)c(C)c1CCC(=O)Nc1ccc(F)c(F)c1` as the compound, how does the Potency read?
Answer: inactive

Question: Which Potency does the source give for `C#CCN(C(=O)c1cc(COc2cccc(C(F)(F)F)c2)on1)C1CCCCC1` here?
Answer: inactive

Question: With `Oc1cccc(Nc2ncnc3c2oc2ccccc23)c1` as the compound, how does the Potency read?
Answer: active: 13 µM

Question: For `COc1ccccc1NC(=O)C(=O)c1cn(CC(=O)N2CCOCC2)c2ccccc12`, which Potency is on record?
Answer: inconclusive: 16.4 µM [activator, partial curve, poor fit]
